This is an account of results in PubChem BioAssay AID434955 (Southern Research Specialized Biocontainment Screening …, 2010).

SMILES strings stand for the structures. This is one part of the list. The main result of the screen is listed elsewhere. These columns were measured beside it and carry no call. Most of these compounds were active or inconclusive in the main read-out, so they are no random draw.

The experiment can be described thus: beta-lactam sensitization of Mtb H37Rv, H37Rv (AID 434955).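 Also: growth measured after seven days incubation then overnight dye step; 0% = bacteria only wells and 100% = bacteria with antibiotic.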 Conditions: M. tuberculosis H37Rv growth with meropenem, percent inhibition; measured here: primary screen without meropenem; at 25 µM.
Turning to `CC1(C)CC(=O)c2sc(NS(=O)(=O)c3ccc([N+](=O)[O-])cc3)nc2C1`, the inhibition is -0.39%.

Regarding `COc1ccccc1N1CCN(C2CCCN(S(=O)(=O)c3cccc(Cl)c3)C2)CC1` (stereo unspecified), the inhibition worked out at 3.63%. Under `COc1ccc(Cl)cc1NC(=O)C1CCCN(c2cc(C)nc3ncnn23)C1` (stereo unspecified) stands -6.41%; under `Cc1ccc(NC(=O)Nc2cccs2)nc1`, -0.29%. Under `O=C(c1ccccc1NS(=O)(=O)c1ccccc1[N+](=O)[O-])N1CCCC1` stands 3.86%; under `CSc1ccccc1C(=O)Nc1ccc2c(c1)OCCO2`, 18.1%; under `CC(=O)c1c(OC(=O)c2cccc(Cl)c2)c2ccccc2n1C`, 45.6%. Under `CC(=O)N1CCc2cc(Br)cc(S(=O)(=O)N3CCC(C(=O)O)CC3)c21` stands -8.79%; under `CCCC(=O)N(c1ccc(OCC)cc1)S(=O)(=O)c1ccc2c3c(cccc13)C(=O)N2C`, -0.3%; under `Cc1ccc2c(c1)N(CC(=O)N1CCCCCC1)C(=O)c1cccnc1O2`, 2.83%. As to `COc1ccccc1NC(=O)Cn1c(=O)n(C)c(=O)c2sc3c(c21)COC(C)(C)C3`, the inhibition was 9.37%. Next, `Cc1cccc(C(=O)N2CCC(N3CCC(C(=O)N4CCOCC4)CC3)CC2)c1`: -6.83%; `COc1ccc2nc(NCCCNC(=O)c3cc(OC)c(OC)c(OC)c3)c(C#N)cc2c1`: -6.73%. Next, `O=C(CN(Cc1ccco1)C(=O)c1cccc(Cl)c1)Nc1c(Cl)cc(Cl)cc1Cl`: 2.32%. With `N/C(=N\OC(=O)CC1CCCCC1)c1ccc(Cl)cc1`, the inhibition stood at 5.52%.

On to `CCc1ccc2c(c1)C(=O)C(=O)N2CCS(=O)(=O)c1ccccc1`, for which the inhibition is -1.45%. Under `O=C(Nc1nnc(-c2ccccc2SCc2ccccc2F)s1)Nc1ccccc1F` stands 3.24%; under `CCOc1ccccc1NC(=O)c1oc2ccccc2c1NC(=O)C1CC1`, 10.3%. Under `CC(=O)c1ccc(C(=O)N2CCCC(Nc3ccccc3)C2)s1` (stereo unspecified) stands -4.41%.

As to `CCn1ncc(Cl)c1C(=O)NC(=S)Nc1ccccc1Br`, the inhibition was 7.39%.

Regarding `O=C(Cc1ccc(F)cc1)N/N=C/c1ccncc1`, the inhibition is -5.43%. Next, `CC12CCC(C/C1=N\N=C1\NC(=O)/C(=C\c3cccc(Br)c3)S1)C2(C)C` (stereo unspecified): 21.6%; `COc1nc(N/N=C/c2ccccc2F)nc(N2CCCCC2)n1`: 10.4%. Under `CC(C)N1CCc2c(sc(NC(=O)CCS(=O)(=O)c3ccccc3)c2C(N)=O)C1` stands -1.07%; under `COc1cc(C(=O)NCc2nc(C)cs2)ccc1OC1CCN(C(C)=O)CC1`, -3.64%; under `O=C(c1ccc(Br)o1)N1N=C(c2ccc(Cl)cc2)CC1c1ccco1` (stereo unspecified), -0.02%. Next, `O=C(COC(=O)C1CC1)NCc1ccccc1Cl`: 34.2%. Take `O=C1CCCN1CN(C(=O)c1ccc2c(c1)OCO2)c1ccc(F)cc1`: the inhibition was 4.55%. As to `COc1ccc(/C(N)=N/OC(=O)CC2CCCCC2)cc1`, the inhibition is -1.28%. For the compound `COc1ccccc1OCC(=O)N1CCCC(Nc2ccc(C)c(C)c2)C1` (stereo unspecified), the inhibition came out at 1.81%. Under `COc1cc(OC)cc(C(=O)Nc2nnc(SCC(=O)NCC3CCCO3)s2)c1` (stereo unspecified) stands -0.49%; under `COc1cccc(NC(=O)Cn2c(=O)n(C)c(=O)c3sc4c(c32)COC(C)(C)C4)c1`, 0.81%; under `Cc1ccc(-n2nnnc2Sc2nc([N+](=O)[O-])nn2C)c(C)c1`, 36.1%. Regarding `Cc1nc2c(C(=O)NCc3ccc4c(c3)OCO4)c[nH]n2c(=O)c1Cc1ccccc1F`, the inhibition is 8.34%. Next, `CCCCC(CC)CNC(=O)CCS(=O)(=O)c1cccc2nsnc12` (stereo unspecified): -2.54%.

For the compound `O=C(Nc1ccnn1C1CCN(C2CCC2)CC1)c1ccccc1`, the inhibition was -0.89%. Under `O=C(NCc1ccccc1Cl)C1CCC(=O)N(C2CC2)C1` (stereo unspecified) stands -10.3%; under `Nc1nonc1C(=O)NCCNCc1cc(Br)ccc1OCc1ccccc1F`, 14.5%; under `O=C(c1cnccn1)N(Cc1ccco1)C1(C(=O)NC2CCCC2)CCCCC1`, -0.62%. Under `CSCCC(NC(=O)C1CCC(C)CC1)C(=O)NCc1ccco1` (stereo unspecified) stands -7.36%.

`O=C(CN1C(=O)COc2ccc(Cl)cc21)N1CCc2ccccc21`: the inhibition was -0.45%.

Regarding `CC(=O)Nc1ccc(S(=O)(=O)NCCN2CCNC2=O)cc1Cl`, the inhibition worked out at 2.83%. On to `Cc1ccc(-c2onc(C)c2C)cc1S(=O)(=O)N1CC(C)Oc2ccccc21` (stereo unspecified), for which the inhibition came out at 2.41%. Next, `CCOc1cc(CO)c(Br)cc1OCC(=O)O`: 0.7%; `CSc1ccccc1OCc1cc(C(=O)NCCn2nc(C)cc2C)no1`: 0.49%; `Cc1oc2cc3oc(=O)c(CCC(=O)N[C@H](C(=O)O)C(C)C)c(C)c3cc2c1C`: 14.6%. Next, `O=[N+]([O-])c1cccc(/C=N/n2cnnc2)c1O`: 9.89%; `O=C(CCC1CCN(C(=O)c2ccco2)CC1)NCc1ccc(F)cc1`: -3.51%; `Nc1nc(C2C(=O)CCCC2=O)cs1`: 5.56%. Under `Cc1ccc(C(=O)N2CCC(C(=O)Nc3cccc([N+](=O)[O-])c3)CC2)cc1` stands -6.7%. For `COc1cc(Br)cc(/C=N/NC(=O)Cc2ccc(C(F)(F)F)cc2[N+](=O)[O-])c1O`, the inhibition is -0.46%. Next, `O=C(CSc1nnc(-c2ccncc2)o1)c1cccc([N+](=O)[O-])c1`: 41.8%; `Cc1cccc(Cn2c(N(C)CCO)nc3c2c(=O)[nH]c(=O)n3C)c1`: -1.51%; `C=C(C)CNC(=S)N/N=C(\C)c1ccc(-n2ccnc2)cc1`: 50.1%. Turning to `CCOC(=O)c1[nH]c(C)c(C(=O)Nc2ccc(F)cc2)c1C`, the inhibition was -1%. Under `O=C(Nc1sc2c(c1C(=O)NC1CC1)CCCCCC2)c1ccco1` stands -5.06%. Next, `COc1ccc(N2C(=O)NC(=O)/C(=C\c3cn(CC(=O)N4CCOCC4)c4ccccc34)C2=O)c(OC)c1`: -8.14%; `COc1ccc(C(=O)Nc2nc3ccccc3s2)c(OC)c1`: 33.6%; `Cc1cc2[nH]c(=O)c(=O)[nH]c2cc1S(=O)(=O)N1CCC(C)CC1`: -17.6%.

In the case of `Cn1c(=O)n(CCc2ccccc2)c(=O)c2c1ncn2Cc1ccccc1`, the inhibition worked out at 7.03%. Next, `CCOC(=O)CC1(NC(=O)c2cc(COc3cncc(Cl)c3)on2)CCCCC1`: 7.96%; `O=C(c1ccc(-n2c(SCc3cc(F)ccc3F)nc3ccccc3c2=O)cc1)N1CCOCC1`: 25%. Under `O=c1oc(-c2cccs2)nc2sc3c(c12)CCC3` stands 13.5%. As for `CCOC(=O)c1ccc(N2CN(CCc3ccccc3)CNC2=S)cc1`, the inhibition came to 33.2%. Next, `COc1cc(NC(=O)c2ccccc2)c(OC)cc1NC(=O)CN1CCOCC1`: 41.5%. Turning to `CN(C)CCCN1C(=O)c2oc3ccccc3c(=O)c2C1c1cccs1` (stereo unspecified), the inhibition is -2.83%. Under `O=C(O)CCN1C(=O)/C(=C\c2ccc(-c3nc4ccccc4s3)o2)SC1=S` stands -8.52%; under `COc1ccc(C(=O)Nn2c(SCC(=O)NCc3ccccc3)nc3ccccc3c2=O)cc1`, -11.9%.

Regarding `CCC(=O)/C=C1\Sc2ccc(OC)cc2N1CC`, the inhibition amounted to 2.23%. Next, `O=C(CCCCCN1C(=O)c2cccc([N+](=O)[O-])c2C1=O)Nc1ccccc1F`: 50%; `O=C1Nc2ccccc2N(O)N1c1cc(-c2cccc(Cl)c2)no1`: 4.15%. Take `CCn1c(CSc2nc3ccccc3[nH]2)n[nH]c1=S`: the inhibition was -3.29%. Next, `CC(C)c1ccc(/C=C(\NC(=O)c2ccccc2)C(=O)NCCCn2ccnc2)cc1`: 7.23%.

Turning to `Cc1cc(N(CN2CCCC2=O)C(=O)c2ccc(F)cc2)no1`, the inhibition is -10.2%. On to `O=C(Nc1ccc(Cl)cc1)ON=C1CCCC1`, for which the inhibition was -10.9%.

On to `COc1ccccc1/C=C/CN1CCOCC1`, for which the inhibition worked out at 1%. Under `CCOC(=O)c1cccc(NC(=O)CSc2nnc(COc3ccccc3)n2CC)c1` stands 40.9%; under `CN(C)N=C1c2cc(S(=O)(=O)N3CCOCC3)ccc2-c2ccc(S(=O)(=O)N3CCOCC3)cc21`, 2%. Consider `Cc1ccc(-c2csc3ncnc(Sc4nnc(CN5CCCCCC5=O)o4)c23)cc1`, for which the inhibition turned out to be 79.7%. On to `O=C(c1cccc(Cl)c1)N1CCC(C(=O)N2CCN(Cc3ccccc3)CC2)CC1`, for which the inhibition is -11%.

For the compound `Cc1cc(C)cc(NC(=O)CSc2nnc(-c3ccccc3Br)o2)c1`, the inhibition was -18.3%. Take `C=CCOC(=O)C1=C(C)N=C2SCCC(=O)N2C1c1ccc(OC(=O)c2ccco2)cc1` (stereo unspecified): the inhibition is -11%.

As to `COc1ccc(C(=O)/C=C/c2cccs2)c(OC(=O)c2cccc([N+](=O)[O-])c2)c1`, the inhibition worked out at 39%. `O=C(CN1CCN(S(=O)(=O)c2ccc(Cl)cc2)CC1)NC(=O)NC1CCCCC1`: the inhibition amounted to 2.1%. Next, `CC(C)c1ccccc1NC(=O)Nc1ccc2c(c1)OCO2`: 1.19%; `CCOCCCNC(=O)CC1Oc2ccc(C)cc2NC1=O` (stereo unspecified): 0.75%. Under `COc1cccc(-c2cc(C(=O)N3CCN(Cc4ccc5c(c4)OCO5)CC3)on2)c1` stands 3.25%; under `COc1ccc(C2=NOC(C(=O)NC3CCCCC3)C2)cc1OC` (stereo unspecified), -3.13%. Under `COc1ccc(-c2c(-c3ccc(O)cc3O)n[nH]c2C)cc1OC` stands -2.43%; under `CC(C(=O)c1ccccc1)[n+]1cccc(Br)c1` (stereo unspecified), 7.69%; under `COc1cc(NC(=S)NC(=O)CCc2ccccc2)cc(OC)c1`, 11.2%. `C[C@H](NC(=O)c1[nH]cnc1C(=O)Nc1cccc(Cl)c1)c1ccccc1`: the inhibition stood at 66.4%. Next, `O=C(CN1C(=O)c2cccnc2Oc2ccc(Cl)cc21)NCCC1=CCCCC1`: 6.69%; `Cc1ccc(S(=O)(=O)Nc2ccc(S(=O)(=O)Nc3nccs3)cc2)c([N+](=O)[O-])c1`: 94.6%; `CN1CCOCCOCCN(C)C1=O`: 1.83%. On to `Cc1ccc(C2=NN(C(=O)CSc3nccn3C)C(c3ccco3)C2)cc1` (stereo unspecified), for which the inhibition came to 0.5%. As for `N#Cc1c(-c2ccncc2)cc(-c2ccc(F)cc2)nc1N`, the inhibition is -3.14%.

`CSCCC(NC(=O)c1cccc(S(=O)(=O)N2CCOCC2)c1)C(=O)Nc1cccc(C)c1` (stereo unspecified): the inhibition was -7.83%.

`CCOC(=O)N1CCc2c(sc(NC(=O)CCS(=O)(=O)c3ccccc3)c2C(N)=O)C1`: the inhibition was found to be 6.23%. Under `O=C(O)CCCCNS(=O)(=O)c1ccc(Cl)c(C(F)(F)F)c1` stands -5.46%; under `COc1ccc(/C=N/NC(=O)Cn2cnc3ccccc3c2=O)cc1`, -0.13%; under `CCN1CCc2c(sc(NC(=O)c3ccc(S(=O)(=O)N4CCCC4)cc3)c2C(=O)NC)C1`, 2.94%. Next, `O=C1c2oc3ccccc3c(=O)c2C(c2cccc(O)c2)N1CCCN1CCOCC1` (stereo unspecified): 0.52%; `CC(C)c1ccc(CN2CC(C(=O)O)CC2=O)cc1` (stereo unspecified): -2.66%; `CSc1ccc(-c2nnn(CC(=O)NCc3ccccc3)n2)cc1`: 35.1%. Take `Cc1ccc2[nH]c(=O)c3cc(C(=O)NCCN4CCN(C)CC4)sc3c2c1`: the inhibition amounted to 1.21%.
